Data reported in paper PMC9911399, “Two distinct binding modes provide the RNA-binding protein RbFox with extraordinary sequence specificity”.
Residue numbers refer to the chain shown, from its start. This is one part of the list.

T1: RBFOX1 RRM (Homo sapiens, UniProt Q9NWB1 109-208)
T1 sequence: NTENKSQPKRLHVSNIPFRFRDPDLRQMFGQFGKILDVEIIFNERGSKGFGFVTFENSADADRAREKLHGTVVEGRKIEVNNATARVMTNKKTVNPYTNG

B1: UUCUUUA (DNA:RNA)
RNA: GGGAGACCGGAAUUCAGAUUGUCCUUCUUUAUUAAAUCCCGUCGUAGCCACCA
DNA 1: CAATCTGAATTCCGGTCTCCC
DNA 2: TGGTGGCTACGACGGGATT
B2: UAUCAUG (DNA:RNA)
RNA: B1 RNA with U26A, C27U, U28C, U29A, A31G
DNA 1: CAATCTGAATTCCGGTCTCCC
DNA 2: TGGTGGCTACGACGGGATT
B3: GUUAUAU (DNA:RNA)
RNA: B1 RNA with U25G, C27U, U28A, U30A, A31U
DNA 1: CAATCTGAATTCCGGTCTCCC
DNA 2: TGGTGGCTACGACGGGATT
B4: CGUCAGU (DNA:RNA)
RNA: GGGAGACCGGAAUUCAGAUUGUCCCGUCAGUUUAAAUCCCGUCGUAGCCACCA
DNA 1: CAATCTGAATTCCGGTCTCCC
DNA 2: TGGTGGCTACGACGGGATT
B5: CACCCGC (DNA:RNA)
RNA: B4 RNA with G26A, U27C, A29C, U31C
DNA 1: CAATCTGAATTCCGGTCTCCC
DNA 2: TGGTGGCTACGACGGGATT
B6: GUACUUA (DNA:RNA)
RNA: B1 RNA with U25G, C27A, U28C
DNA 1: CAATCTGAATTCCGGTCTCCC
DNA 2: TGGTGGCTACGACGGGATT
B7: CCACGAU (DNA:RNA)
RNA: B4 RNA with G26C, U27A, A29G, G30A
DNA 1: CAATCTGAATTCCGGTCTCCC
DNA 2: TGGTGGCTACGACGGGATT
B8: CACUCGA (DNA:RNA)
RNA: B1 RNA with U25C, U26A, U29C, U30G
DNA 1: CAATCTGAATTCCGGTCTCCC
DNA 2: TGGTGGCTACGACGGGATT
B9: UCUACCC (DNA:RNA)
RNA: B4 RNA with C25U, G26C, C28A, A29C, G30C, U31C
DNA 1: CAATCTGAATTCCGGTCTCCC
DNA 2: TGGTGGCTACGACGGGATT
B10: GGACUUA (DNA:RNA)
RNA: B1 RNA with U25G, U26G, C27A, U28C
DNA 1: CAATCTGAATTCCGGTCTCCC
DNA 2: TGGTGGCTACGACGGGATT
B11: GGGGAAA (DNA:RNA)
RNA: B4 RNA with C25G, U27G, C28G, G30A, U31A
DNA 1: CAATCTGAATTCCGGTCTCCC
DNA 2: TGGTGGCTACGACGGGATT
B12: GUGGAGU (DNA:RNA)
RNA: B4 RNA with C25G, G26U, U27G, C28G
DNA 1: CAATCTGAATTCCGGTCTCCC
DNA 2: TGGTGGCTACGACGGGATT
B13: UGCCGUU (DNA:RNA)
RNA: B4 RNA with C25U, U27C, A29G, G30U
DNA 1: CAATCTGAATTCCGGTCTCCC
DNA 2: TGGTGGCTACGACGGGATT
B14: GGAUAGG (DNA:RNA)
RNA: B4 RNA with C25G, U27A, C28U, U31G
DNA 1: CAATCTGAATTCCGGTCTCCC
DNA 2: TGGTGGCTACGACGGGATT
B15: ACAGGCC (DNA:RNA)
RNA: GGGAGACCGGAAUUCAGAUUGUCCACAGGCCUUAAAUCCCGUCGUAGCCACCA
DNA 1: CAATCTGAATTCCGGTCTCCC
DNA 2: TGGTGGCTACGACGGGATT
B16: UCGACUU (DNA:RNA)
RNA: B1 RNA with U26C, C27G, U28A, U29C, A31U
DNA 1: CAATCTGAATTCCGGTCTCCC
DNA 2: TGGTGGCTACGACGGGATT
B17: UCUCCAA (DNA:RNA)
RNA: B4 RNA with C25U, G26C, A29C, G30A, U31A
DNA 1: CAATCTGAATTCCGGTCTCCC
DNA 2: TGGTGGCTACGACGGGATT
B18: UGUCUGU (DNA:RNA)
RNA: B4 RNA with C25U, A29U
DNA 1: CAATCTGAATTCCGGTCTCCC
DNA 2: TGGTGGCTACGACGGGATT
B19: UGGGAUA (DNA:RNA)
RNA: B1 RNA with U26G, C27G, U28G, U29A
DNA 1: CAATCTGAATTCCGGTCTCCC
DNA 2: TGGTGGCTACGACGGGATT
B20: AUCAGUC (DNA:RNA)
RNA: B15 RNA with C26U, A27C, G28A, C30U
DNA 1: CAATCTGAATTCCGGTCTCCC
DNA 2: TGGTGGCTACGACGGGATT

The binders below were run against T1, RBFOX1 RRM (assay: EMSA; HiTS-Eq, 1 nM pool, 10 min; buffer printed only for the single-RNA assays: 10 mM Tris pH 7.5, 150 mM NaCl, 3.4 mM EDTA, 0.001% NP-40, 30 C). Conditions: tags: His6 N-terminal (pET28a); label: 5' 32P.
Method in brief: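 Purified RbFox RRM, wild type or mutant, was incubated for 10 min in 50 µL with 1 nM of a 5′-radiolabelled RNA pool carrying 7 randomized nucleotides, whose flanks were annealed to DNA oligonucleotides, over a series of increasing protein concentrations. Unbound RNA was resolved on 8% native PAGE, cut out, reverse-transcribed, barcoded by PCR and sequenced on an Illumina HiSeq 2500. Relative association constants were derived from changes in read counts for each RNA species versus the control reaction and normalised to the cognate motif.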

Binder	binding signal
B1	0.00687 KA relative to UGCAUGU
B2	0.0146 KA relative to UGCAUGU
B3	0.00265 KA relative to UGCAUGU
B4	0.0114 KA relative to UGCAUGU
B5	0.00257 KA relative to UGCAUGU
B6	0.0033 KA relative to UGCAUGU
B7	0.00218 KA relative to UGCAUGU
B8	0.00262 KA relative to UGCAUGU
B9	0.0044 KA relative to UGCAUGU
B10	0.00774 KA relative to UGCAUGU
B11	0.0294 KA relative to UGCAUGU
B12	0.0187 KA relative to UGCAUGU
B13	0.0152 KA relative to UGCAUGU
B14	0.0148 KA relative to UGCAUGU
B15	0.00855 KA relative to UGCAUGU
B16	0.0106 KA relative to UGCAUGU
B17	0.00225 KA relative to UGCAUGU
B18	0.0276 KA relative to UGCAUGU
B19	0.0263 KA relative to UGCAUGU
B20	0.00492 KA relative to UGCAUGU
